Results from patent US20240190987A1, “Engineered EpCam Binding Antibodies” (TigaTX, priority 2021, published 2024).

Columns and labels:
[1] = test system: human T-cells with HCT-116 target cells; experiment: T-cell activation (CD69 upregulation) in co-culture with HCT-116; format: cell-based; details: up to 1 nM, 69 hours
From the text: Leukapheresis packs were obtained from deidentified healthy adult donors (StemCell Technologies, Vancouver, BC). Peripheral blood mononuclear cells (PBMCs) were first isolated using the EasySep Direct Human PBMC Kit (StemCell Technologies). Human T cells were magnetically isolated from the PBMCs using the EasySep Human T cell Isolation Kit (StemCell Technologies). T cells were cryopreserved in DMEM with 10% FBS and 10% DMSO and thawed the day of experiments.
(§1) Co-culture assays were used to assess T-cell activation (CD69 upregulation), cytokine production or T-cell-dependent cellular cytotoxicity (TDCC) of target cells. […] While T cells were being processed, target cells were incubated with CellTiter-Glo 2.0 (Promega, Madison, WI) for 15 min at room temperature with shaking then read for luciferase light emission on a GloMax Explorer plate reader using default settings. Specific Cytotoxicity (%) was calculated from the relative luminescence unit values (RLU) using the formula: [1−(experimental RLU/vehicle-treated RLU))×100]. The frequency of CD69+ T-cells (%) was calculated as the percentage of CD69-positive events within the CF405M-negative population. Dose-response curves and EC50 values were calculated in GraphPad Prism 9 software (GraphPad Software San Diego, CA).

[2] = test system: AEKO cells; experiment: TDCC co-culture assay, AEKO; format: cell-based, human; details: up to 1 nM, 69 hours
Experimental: Surface binding was measured on an isogenic panel of EpCAM-knockout and EpCAM-overexpressing cell lines derived from A-431, a human epidermoid carcinoma cell line (FIG. 34). AEKO and AEPO are isogenic control cell lines in which there is zero EpCAM expression (AEKO) or high EpCAM expression (AEKO-E4). AEKO is a commercially available subclone of A-431 in which human EpCAM expression is “knocked out” (disrupted) by a frameshift mutation (catalog number ab261902; Abcam, Cambridge, UK). AEPO was developed using the AEKO cell line as a starting point and restoring expression of human EpCAM by transducing with a lentiviral vector containing human EpCAM downstream of an EF1α promoter. […]
as §1, with “Dose-response curves and EC50 values were calculated in GraphPad Prism 9 software (GraphPad Software San Diego, CA).” left out

[3] = test system: human T-cells with AEPO target cells; experiment: T-cell activation (CD69) in co-culture with AEPO; format: cell-based; details: up to 1 nM, 69 hours
Experimental: The HCT-116, AEKO and AEPO cell lines described above were used as target cells in a TDCC co-culture assay with Ab1070 (FIG. 35). […] EpCAM structure-activity relationship (SAR) campaign
as §1, with “cells. Flat-bottom 96-well plates were seeded with 5,000 target cells in complete growth media (DMEM+10% FBS+1% penicillin/streptomycin) 16-24 hrs before the assay. Antibody drugs were added in 10 μL growth media and incubated for at least 10 min at 37° C. Indinavir or vehicle control was added in 10 μL growth media.” for “cells.”

[4] = test system: human PBMCs; experiment: Surface staining of human PBMCs by flow cytometry; format: cell-based; details: TCRab+, CD4+ and CD8+ subsets
Experimental: FIG. 32 depicts Ab1070 binding to human and cynomolgus macaque PBMCs. Binding was measured by flow cytometry using a secondary fluorescent antibody (IgG-PE). T-cell subsets were identified using additional fluorescent antibodies against TCRab, CD4 and CD8 and gated prior to quantifying the median fluorescence intensity (MFI) of the IgG-PE channel. […] The assay was performed with up to 10 μM antibodies (titrated as indicated).
Peripheral blood mononuclear cells (PBMCs) from healthy cynomolgus macaques (Chinese origin) were obtained commercially (iQ Biosciences, Berkeley, CA). Peripheral blood mononuclear cells (PBMCs) from healthy human donors were isolated from leukapheresis packs (leukopaks) from deidentified healthy adult donors (StemCell Technologies, Vancouver, BC). Human PBMCs were isolated using the EasySep Direct Human PBMC Kit (StemCell Technologies) then cryopreserved in DMEM with 10% FBS and 10% DMSO. Frozen PBMC cryovials were thawed on the day of experiments and washed complete growth media (DMEM+10% FBS+1% penicillin/streptomycin). Cells were resuspended in growth media and transferred to a 96-well U-bottom plate at 55,000 cell/well. Human TruStain FcX (Fc Receptor Blocking Solution; Catalog number 422302; BioLegend, San Diego, CA) was added at a 1:20 final dilution of the manufacturer's stock and incubated for 10 minutes at room temperature in a volume of 25 μL. […]

B1: Ab1070: conventional TCE containing the M37-H6L2 variant of the M37 clone (antibody)
heavy 1: EVQLVESGGGLVQPGGSLRLSCAASGFTFNTYAMNWVRQAPGKGLEWVARIRSKYNNYATYYADSVKGRFTISRDDSKSILYLQMNSLRAEDTAVYYCVRHGNFGNSYVSWFAYWGQGTLVTVSSGGGGSGGGGSGGGGSDIQVTQSPSSLSASVGDRVTITCRSSTGAVTTSNYANWVQQKPGKAFKGLIGGTNKLAPGVPSRFSGSLSGDDATLTISSLQPEDFATYYCALWYSNLWVFGQGTKLEIKGGGGS[human IgG1 Fc with changes left out]
heavy 2: EVQLVESGGGLVQPGGSLRLSCAASGFTFSNYWMNWVRQAPGKGLEWVAQIRVKSENFATHYADSVKGRFTISRDDSKSTVYLQMNSLRAEDTAVYYCTLYDGFSWGQGTLVTVSSASTKGPSVFPLAPSSKSTSGGTAALGCLVKDYFPEPVTVSWNSGALTSGVHTFPAVLQSSGLYSLSSVVTVPSSSLGTQTYICNVNHKPSNTKVDKKV[human IgG1 Fc with changes left out]
light: DIQMTQSPSSLSASVGDRVTITCSASSSVSSGNFHWYQQKPGKAPKLLIYRTSNLASGVPSRFSGSGSGTDYTLTISSLQPEDFATYYCQQWSGYPYTFGQGTKVEIKRTVAAPSVFIFPPSDEQLKSGTASVVCLLNNFYPREAKVQWKVDNALQSGNSQESVTEQDSKDSTYSLSSTLTLSKADYEKHKVYACEVTHQGLSSPVTKSFNRGEC
modifications: REGION 1..482: note = Ab1070 Knob HC; REGION 1..446: note = Ab1070 Hole HC; REGION 1..215: note = Ab1070 Hole LC
notes: conventional TCE containing the M37-H6L2 variant of the M37 clone
T-cell activation (CD69 upregulation) with HCT-116 [1]: induced activation of T-cells | TDCC of AEKO target cells [2]: spared from TDCC | T-cell activation (CD69 upregulation) with AEPO [3]: induced activation of T-cells | binding to human PBMC T-cell subsets [4]: dose-dependent
